From publication PMC4336329 (PLoS ONE, 2015)
The whole screen tested about 310,000 compounds, of which about 14,000 (4.5%) showed an effect of 50% or more. Effects have a minus sign here. Some of the results follow.

Molecular target: human ether-à-go-go-related gene (hERG) potassium channel (human, UniProt Q12809)
Test: primary screen, population patch clamp on CHO cells stably expressing hERG
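Further: peak tail current of the secondary pulse compared with the same well before compound.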

human ether-à-go-go-related gene (hERG) potassium channel, sequence (Q12809 whole entry, looked up): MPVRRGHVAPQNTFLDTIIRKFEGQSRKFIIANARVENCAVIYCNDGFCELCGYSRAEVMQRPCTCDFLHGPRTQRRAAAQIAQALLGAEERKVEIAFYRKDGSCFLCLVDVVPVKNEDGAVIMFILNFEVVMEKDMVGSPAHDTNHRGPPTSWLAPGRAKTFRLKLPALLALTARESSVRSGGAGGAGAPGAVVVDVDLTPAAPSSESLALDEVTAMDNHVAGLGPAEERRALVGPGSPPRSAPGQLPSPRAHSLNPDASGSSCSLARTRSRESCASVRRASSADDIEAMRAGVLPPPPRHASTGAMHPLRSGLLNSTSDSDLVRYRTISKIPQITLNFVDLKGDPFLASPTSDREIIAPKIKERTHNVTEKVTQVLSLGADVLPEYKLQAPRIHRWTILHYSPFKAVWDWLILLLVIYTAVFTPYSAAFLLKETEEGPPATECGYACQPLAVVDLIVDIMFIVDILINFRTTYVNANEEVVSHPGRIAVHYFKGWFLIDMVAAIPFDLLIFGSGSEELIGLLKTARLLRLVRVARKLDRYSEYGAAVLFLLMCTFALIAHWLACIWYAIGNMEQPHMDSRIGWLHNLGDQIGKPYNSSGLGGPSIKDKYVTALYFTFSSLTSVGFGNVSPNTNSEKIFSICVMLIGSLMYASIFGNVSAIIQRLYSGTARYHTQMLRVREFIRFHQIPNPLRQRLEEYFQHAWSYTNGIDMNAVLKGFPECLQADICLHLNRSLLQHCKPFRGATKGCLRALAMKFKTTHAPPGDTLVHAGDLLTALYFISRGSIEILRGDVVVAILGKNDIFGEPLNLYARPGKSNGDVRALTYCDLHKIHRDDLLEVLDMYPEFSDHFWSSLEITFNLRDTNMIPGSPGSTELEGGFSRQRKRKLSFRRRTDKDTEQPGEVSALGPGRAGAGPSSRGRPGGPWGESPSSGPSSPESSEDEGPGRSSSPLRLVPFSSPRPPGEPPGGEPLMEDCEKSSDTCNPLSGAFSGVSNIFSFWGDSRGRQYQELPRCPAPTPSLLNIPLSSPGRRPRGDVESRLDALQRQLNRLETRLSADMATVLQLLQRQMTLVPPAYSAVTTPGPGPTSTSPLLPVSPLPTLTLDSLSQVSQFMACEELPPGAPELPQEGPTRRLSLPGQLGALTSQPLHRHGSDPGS

Going from `Cc1cc(Cl)ccc1C(=O)C1CCCN(C(=O)c2ccsc2)C1` (centres unmarked) to `O=C(N/C(=C\c1ccco1)C(=O)N1CCCC(CO)C1)c1ccccc1` (centres unmarked), the “hERG current change (%, negative = inhibition) at 10uM” value rises from -8.49% to 15.6%.

First: Cn1c(N)c(C(=O)COC(=O)c2ncc(Cl)c(Cl)c2Cl)c(=O)n(C)c1=O
Second: CC(=O)c1sc(NC(=O)COc2ccc(Cl)cc2Cl)nc1C
The “hERG current change (%, negative = inhibition) at 10uM” value of the first is lower: -46.8% for the first, 17.9% for the second.

First: Cc1ccc(-n2c(CNc3ccc(C)c(Cl)c3)n[nH]c2=S)cc1
Second: COc1ccc(-n2c(C)c(C)c3c(NCCCN(C)C)ncnc32)cc1
The “hERG current change (%, negative = inhibition) at 10uM” value of the first is higher: 0.601% for the first, -53.1% for the second.

Going from `Clc1ccc(-c2cc(CN3CCOCC3)no2)cc1` to `c1ccc(OCCCCN2CCOCC2)cc1`, the “hERG current change (%, negative = inhibition) at 10uM” value falls from 23.1% to -14.5%.

Compared with `Cc1ccccc1NC(=S)NNC(=O)c1cccnc1`, `FC(F)Oc1ccccc1NC(=S)Nc1cccnc1` is higher in “hERG current change (%, negative = inhibition) at 10uM” value: 11.5% for the first, 12.2% for the second.

Going from `Nc1ccc(C2CCCc3nonc32)c2nonc12` (centres unmarked) to `Oc1c(Br)cc(Br)cc1/C=N/c1nc2c(s1)CCCC2`, the “hERG current change (%, negative = inhibition) at 10uM” value falls from 15% to -2.11%.

Compared with `NC(=S)N/N=C/c1ccc(/C=N/NC(N)=S)cc1`, `O=C(/C=C/c1ccc(Br)cc1)NCc1cccs1` is lower in “hERG current change (%, negative = inhibition) at 10uM” value: 30.7% for the first, 6.86% for the second.

Going from `Cc1cc(C)c(-c2nc3ccccc3s2)[nH]1` to `COCc1cc(=O)[nH]c(Nc2nc3ccccc3o2)n1`, the “hERG current change (%, negative = inhibition) at 10uM” value falls from 12.1% to -1.95%.

First: Cc1cc(-c2csc(N)n2)c(C)n1C
Second: Cc1cc(C(=O)COc2ccc3ccc(=O)oc3c2)c(C)n1C
The “hERG current change (%, negative = inhibition) at 10uM” value of the first is lower: 1.16% for the first, 17.3% for the second.

Going from `OC(CNC1Cc2ccccc2C1)COc1ccc(F)cc1` (centres unmarked) to `Fc1ccc(Oc2cnc3ccccc3n2)cc1`, the “hERG current change (%, negative = inhibition) at 10uM” value rises from -49.1% to -20%.

Compared with `CSCCC(NC(=O)c1ccc(Cl)cc1Cl)C(=O)OC(C)C(=O)NCc1ccco1` (centres unmarked), `CSCCC(NC(=O)c1ccccc1)C(=O)NCCCSc1ccccc1` (centres unmarked) is higher in “hERG current change (%, negative = inhibition) at 10uM” value: -51.8% for the first, -34.2% for the second.

First: Cc1cccc(N2C(=O)N3[C@H](c4ccc(Br)cc4)[C@@H]4C(=O)N(C(C)(C)C)C(=O)[C@@H]4[C@]3(C)C2=O)c1
Second: CCOC(=O)C1=C(Nc2ccccc2)CC(C)(O)C(C(=O)OCC)C1c1ccc(Br)cc1 (centres unmarked)
The “hERG current change (%, negative = inhibition) at 10uM” value of the first is higher: 3.79% for the first, -7.83% for the second.

Compared with `O=C(O)Cc1c(-c2ccccc2)c2cc(Cl)ccc2[nH]c1=O`, `Clc1ccc2[nH]cc(-c3nnnn3-c3ccccc3)c2c1` is lower in “hERG current change (%, negative = inhibition) at 10uM” value: 22.1% for the first, 2.38% for the second.

Going from `CCS(=O)(=O)N1CCN(c2ccc(C(=O)NC3C4CC5CC(C4)CC3C5)cc2[N+](=O)[O-])CC1` (centres unmarked) to `CCCS(=O)(=O)N1CCN(C2CCC(C)CC2)CC1.O=C(O)C(=O)O` (centres unmarked), the “hERG current change (%, negative = inhibition) at 10uM” value rises from -11.7% to 9.97%.

First: CS(=O)(=O)N(CC(=O)NCC1CCCO1)c1cc(Cl)c(Cl)cc1Cl (centres unmarked)
Second: COc1cc(/C=C(\C#N)C(=O)NCC2CCCO2)ccc1OC(=O)c1ccco1 (centres unmarked)
The “hERG current change (%, negative = inhibition) at 10uM” value of the first is lower: -6% for the first, 3.54% for the second.

Compared with `CCCCCCCOC(=O)C1=C(C)Nc2ncnn2C1c1cccs1` (centres unmarked), `CCCCCCCNC(=O)C1(CC2CC(c3cccc(Br)c3)=NO2)CCN(C(=O)OC(C)(C)C)CC1` (centres unmarked) is higher in “hERG current change (%, negative = inhibition) at 10uM” value: -0.122% for the first, 3.88% for the second.

First: CC(=O)Nc1ccc(S(=O)(=O)NC(C)C(=O)OCCOc2ccc(F)cc2)cc1 (centres unmarked)
Second: Cc1cccc(N(CC(=O)NCc2ccco2)C(=O)CNS(=O)(=O)c2ccc(F)cc2)c1
The “hERG current change (%, negative = inhibition) at 10uM” value of the first is lower: -24.3% for the first, 27.5% for the second.

Going from `CCOc1ccc(S(=O)(=O)N2CCC(C(=O)NCc3ccncc3)CC2)cc1` to `O=C(NCCc1ccc(Cl)cc1)C1CCN(S(=O)(=O)c2ccc(-n3cnnn3)cc2)CC1`, the “hERG current change (%, negative = inhibition) at 10uM” value falls from -37% to -69%.

Compared with `COc1ccc(/C=N/N2CCN(c3ccccc3OC)CC2)cc1Br`, `COc1ccccc1N1CCN(C(=O)c2cccc(NC3=NC4CS(=O)(=O)CC4S3)c2)CC1` (centres unmarked) is higher in “hERG current change (%, negative = inhibition) at 10uM” value: 9.45% for the first, 15.6% for the second.

Compared with `CCCNC(=S)N1CCN(c2nc(-c3ccc(C)cc3)cs2)CC1`, `COc1ccccc1CNC(=S)Nc1ccc2nc(N3CCN(C)CC3)cc(C)c2c1` is lower in “hERG current change (%, negative = inhibition) at 10uM” value: 5.6% for the first, -1.77% for the second.

Compared with `Cc1ccc(NC(=O)CS(=O)CC(=O)Nc2ccccc2-c2ccc(C)o2)cc1` (centres unmarked), `COc1ccc([N+](=O)[O-])cc1NC(=O)CSc1ccc2ccccc2c1` is higher in “hERG current change (%, negative = inhibition) at 10uM” value: -7.96% for the first, 12% for the second.

First: CN1CCc2c(sc(NC(=O)C3CCCN3S(=O)(=O)c3ccc(Cl)s3)c2C(N)=O)C1.Cl (centres unmarked)
Second: CC(=O)c1ccc(N2CCN(C(=O)C3CCCN3S(=O)(=O)c3cccc4nsnc34)CC2)cc1 (centres unmarked)
The “hERG current change (%, negative = inhibition) at 10uM” value of the first is lower: -63.6% for the first, -1.72% for the second.

Compared with `Cl.Nc1ccc2c(c1)nc(Cc1ccccc1)n2CCO`, `COc1cccc(CNc2nc3ccccc3n2CCN2CCCCC2)c1` is lower in “hERG current change (%, negative = inhibition) at 10uM” value: 11.6% for the first, -59.3% for the second.

Compared with `COc1ccc(C)cc1NC(=O)C(NCC(O)c1ccccc1)c1ccccc1.O=C(O)C(=O)O` (centres unmarked), `COC(=O)[C@@H]1C[C@H]1[C@@H](NP(=O)(c1ccccc1)c1ccccc1)c1ccccc1` is higher in “hERG current change (%, negative = inhibition) at 10uM” value: -21.7% for the first, 9.28% for the second.

First: CS(=O)(=O)c1ccccc1-c1nnc(NC(=O)c2cccc(N3C(=O)CCC3=O)c2)o1
Second: Cc1cc(NC(=O)c2cccc(S(=O)(=O)Nc3cccc(C(=O)O)c3)c2)no1
The “hERG current change (%, negative = inhibition) at 10uM” value of the first is lower: 4.71% for the first, 13.2% for the second.

First: O=C(NCc1cccnc1)NC1CCCN1S(=O)(=O)c1ccc(Cl)cc1 (centres unmarked)
Second: Cc1cc(S(=O)(=O)NCc2cccnc2)ccc1F
The “hERG current change (%, negative = inhibition) at 10uM” value of the first is lower: -14.2% for the first, -3.24% for the second.

Compared with `Cc1ccccc1NC(=O)COC(=O)/C=C/c1cn(-c2ccccc2)nc1-c1cccnc1`, `Cc1ccc(-c2nn(-c3ccccc3)cc2/C=C(\C#N)C(=O)NCc2ccccc2)cc1` is lower in “hERG current change (%, negative = inhibition) at 10uM” value: 9.19% for the first, -7.27% for the second.

Going from `CCOc1cccc2sc(NC(=O)CC)nc12` to `O=C(CCCOc1ccc(Cl)cc1Cl)Nc1ccccn1`, the “hERG current change (%, negative = inhibition) at 10uM” value rises from 2.42% to 24.2%.

Compared with `O=C(CN1C(=O)C2C3C=CC(C3)C2C1=O)NCCC1=CCCCC1` (centres unmarked), `COCCCn1c(C(=O)NCCC2=CCCCC2)cc2c(=O)n3ccccc3nc21` is higher in “hERG current change (%, negative = inhibition) at 10uM” value: -8.79% for the first, -8.55% for the second.

Compared with `CCOC(=O)c1c(-c2ccccc2)oc2ccc(O)cc12`, `O=C(Nc1cccc(O)c1)C1CCCN1C(=O)OCc1ccccc1` (centres unmarked) is lower in “hERG current change (%, negative = inhibition) at 10uM” value: 19.8% for the first, -7.35% for the second.

First: CCOC(=O)c1cc2c(=O)n3ccccc3nc2n(CCOC)c1=NC(=O)C(C)(C)C
Second: CCn1c(CNC(=O)c2ccccc2F)nnc1SCC(=O)Nc1nncs1
The “hERG current change (%, negative = inhibition) at 10uM” value of the first is lower: -4.45% for the first, 4.52% for the second.

Compared with `O=C1OCCN1CC(=O)N1CCc2c([nH]c3ccccc23)C1c1ccccn1` (centres unmarked), `O=C(CN1C(=O)NC2(CCc3ccccc3C2)C1=O)NCc1ccco1` (centres unmarked) is higher in “hERG current change (%, negative = inhibition) at 10uM” value: -3.43% for the first, 7.22% for the second.

Going from `Cc1ccccc1-n1c(C)cc(/C=N/Nc2ccc([N+](=O)[O-])cn2)c1C` to `COc1ccc(C)cc1NC(=O)CSc1ccc(-c2ccco2)nn1`, the “hERG current change (%, negative = inhibition) at 10uM” value falls from 17.4% to -0.864%.

First: CCc1ccc(NS(=O)(=O)c2c(C(=O)N3CCCCCC3)c(C)n(C)c2C)cc1
Second: COC(=O)C1=C(c2c(C)noc2C)C[C@@H]2CC[C@H]1N2C(=O)N1CCCCC1
The “hERG current change (%, negative = inhibition) at 10uM” value of the first is lower: 1.32% for the first, 17.1% for the second.

Going from `O=C(c1ccccc1)c1cc[n+]([O-])cc1` to `Cc1ccc(S(=O)(=O)NCc2ccccc2)s1`, the “hERG current change (%, negative = inhibition) at 10uM” value rises from 1.18% to 11%.

First: CC1(C)CC(=O)C=C(NCC2CCCO2)C1 (centres unmarked)
Second: CCC(=O)Nc1cc(C)c(NC(=O)C23CC4CC(CC(C4)C2)C3)cn1
The “hERG current change (%, negative = inhibition) at 10uM” value of the first is lower: 3.7% for the first, 8.35% for the second.

First: Cc1ccc(NC2=NCCCS2)cc1Cl
Second: CCN(CC)CCNC(CC(=O)Nc1ccc(Cl)cc1Cl)C(=O)O (centres unmarked)
The “hERG current change (%, negative = inhibition) at 10uM” value of the first is lower: 7.68% for the first, 8.31% for the second.

Going from `O=C(CN1CCN(c2ccccn2)CC1)Nc1cccc(C(F)(F)F)c1` to `Cc1ccccc1CN1CCN(C(=O)CC(C)C)CC1`, the “hERG current change (%, negative = inhibition) at 10uM” value rises from -6.41% to 7.69%.

Going from `CC1CC(=O)Nc2cc([N+](=O)[O-])ccc2N1` (centres unmarked) to `CCCCN1C(=O)C(=O)N(CC(=O)NC2CCCc3ccccc32)C1=O` (centres unmarked), the “hERG current change (%, negative = inhibition) at 10uM” value rises from 12.1% to 21.1%.

First: COc1ccc(C2NC3=C(CCCC3)C(C#N)(C#N)C2(C#N)C#N)cc1 (centres unmarked)
Second: COc1ccc(N2C(=O)CC(N3CCC(O)(c4ccc(Cl)cc4)CC3)C2=O)cc1 (centres unmarked)
The “hERG current change (%, negative = inhibition) at 10uM” value of the first is higher: 17.6% for the first, -21.5% for the second.

Compared with `Cn1c(=O)c2ncn(CC(=O)Nc3ccc(N4CCOCC4)cc3)c2n(C)c1=O`, `O=C(CSc1nnc(CNC(=O)c2ccco2)o1)Nc1ccc(OC(F)(F)F)cc1` is lower in “hERG current change (%, negative = inhibition) at 10uM” value: 7.22% for the first, -52.6% for the second.

Going from `COc1ccc(OC)c(NC(=O)NCc2ccc(F)cc2)c1` to `CCC(C)Sc1nnc(CNS(=O)(=O)c2ccc(F)cc2)n1C` (centres unmarked), the “hERG current change (%, negative = inhibition) at 10uM” value rises from -15.9% to 13.8%.

First: CCN1C(=O)N(CC)C2NC(=S)NC21 (centres unmarked)
Second: CC1CCN(C(=O)c2[nH]cnc2C(=O)Nc2ccon2)CC1
The “hERG current change (%, negative = inhibition) at 10uM” value of the first is higher: 17.4% for the first, 2.81% for the second.

Going from `S=C(NC1CCCCC1)N1CCN(C2CCCCC2)CC1` to `CC1=CC2=NC(=O)/C(=C/c3cccn3Cc3ccccc3)C(=N)N2O1`, the “hERG current change (%, negative = inhibition) at 10uM” value rises from -15.4% to -14.1%.

With `O=C1OC2(c3ccccc31)c1cc(I)c(O)c(I)c1Oc1c2cc(I)c(O)c1I` the “hERG current change (%, negative = inhibition) at 10uM” value was 5.17%.
